Data published in PubChem BioAssay AID624296 (National Center for Advancing Translational Sciences (NCATS), 2012).
Out of some 350,000 compounds screened, about 9,900 (2.8%) were called active. The shares of active, inactive and inconclusive entries below differ from those in the screen. Calls come from the whole dose curve; as a rule, active = well fitted activation curve with a large enough effect; inconclusive = small, poorly fitted or top-dose-only effect; inactive = no such curve, though single readings can be large or run the other way. Potencies of inconclusive entries are left out as doubtful fits.
Potency is the fitted concentration of half-maximal effect; tags give direction and shape of the fitted curve.

Experiment: A quantitative high throughput screen for small molecules that induce DNA re-replication in MCF 10a normal breast cells. For activity, positive = re-replication: % of control where 0% means no effect. Note: nearly all actives have a fitted effect of over 50% in size.
Conditions: MCF 10A DNA re-replication, Hoechst nuclear intensity, 48 h; activity, positive = re-replication: at 46.1 µM (top of the series)
In the case of `CS(=O)(=O)Nc1ccc2c(c1)C(=O)OC2`, the “activity, positive = re-replication” value is reported as inactive: 4.82%.
For `O=C1C(C2=C(O)c3ccccc3C2=O)=Nc2ccccc21`, the Potency was active: 23.1 µM.
For `O=[N+]([O-])c1cc(S(=O)(=O)C(F)(F)F)ccc1Sc1nc2ccccc2s1`, the Potency was inconclusive [activator, full curve].
In the case of `FC(F)(F)c1nc2ccccc2n2c(-c3ccc(Cl)cc3)nnc12`, the Potency is reported as active: 13 µM.
In the case of `CC1CC(C)CN(S(=O)(=O)c2ccc(C(=O)NCCCn3ccnc3)cc2)C1` (stereo not drawn), the Potency is reported as inconclusive [activator, single point].
For `Cc1nn2c3ccccc3nc2c2ccccc12`, the Potency was inconclusive [activator, partial curve, poor fit].
For `C=CCc1c(C)nc(SC)nc1Nc1ccc(C)cc1`, the Potency was inconclusive [activator, single point].
In the case of `O=C(CCCc1ccccc1)Nc1ccnn1C1CCN(Cc2ccc(Cl)cc2)CC1`, the Potency is reported as inconclusive [activator, partial curve, poor fit].
For `O=C(c1ccc(Cl)c(Cl)c1)c1cnc(Nc2ccccc2)s1`, the Potency was inconclusive [activator, partial curve, poor fit].
In the case of `CCOc1ccc(NC(=O)CC(C)S(=O)(=O)c2ccc3c(c2)NC(=O)CO3)cc1` (stereo not drawn), the “activity, positive = re-replication” value is reported as inactive: 1.16%.
For `COc1ccc(C2CC23N=C(c2ccccc2)OC3=O)cc1` (stereo not drawn), the Potency was active: 16.4 µM.
For `NC(=S)N/N=C/c1ccc(C(F)(F)F)cc1`, the Potency was inconclusive [activator, single point].
For `Cc1nn(C)c2nc(-c3cccs3)cc(C(F)(F)F)c12`, the Potency was inconclusive [activator, partial curve, poor fit].
In the case of `Cc1ccc(-c2nn(-c3ccccc3)c3[nH]c(=O)c(CNCc4ccccc4)cc23)cc1`, the “activity, positive = re-replication” value is reported as inactive: 1.03%.
In the case of `CC1(c2ccccc2)NC(=O)N(CC(=O)Nc2ccc(Cl)c(S(=O)(=O)N3CCCCC3)c2)C1=O` (stereo not drawn), the Potency is reported as inconclusive [activator, single point].
With `N#CC1=C(N)N(c2ccc(F)cc2)C2=C(C1c1ccc(O)cc1)S(=O)(=O)CC2` (stereo not drawn) the Potency was inconclusive [activator, single point].
With `NS(=O)(=O)c1ccc(CCNCc2ccccc2OCc2ccc(Cl)cc2)cc1` the Potency was inconclusive [activator, partial curve, poor fit].
With `CCN(CC)C(=O)Oc1ccc(Cl)c2cccnc12` the Potency was inconclusive [activator, full curve, poor fit].
With `O=[N+]([O-])c1cc([N+](=O)[O-])c(Oc2cc(F)cc(F)c2F)cc1NN1CCCCC1` the Potency was inconclusive [activator, partial curve, poor fit].
In the case of `O=C(NCC(=O)N(Cc1ccccc1)C(C(=O)NCC1CCCO1)c1ccccc1)c1cccs1` (stereo not drawn), the Potency is reported as inconclusive [activator, single point].
In the case of `COc1cccc(NC(=O)COC(=O)C2CCCCC2)c1`, the “activity, positive = re-replication” value is reported as inactive: -1.51%.
In the case of `COc1ccc(CCC(=O)Nc2cc(S(=O)(=O)N3CCOCC3)ccc2OC(C)C)cc1`, the “activity, positive = re-replication” value is reported as inactive: 7.98%.
For `CN1/C(=C\C(=O)COC(=O)c2ccc(O)c(O)c2)C(C)(C)c2ccccc21`, the Potency was inconclusive [activator, partial curve, poor fit].
With `CCOc1cc(/C=N/NS(=O)(=O)c2ccccc2)ccc1OS(=O)(=O)c1ccc(C)cc1` the Potency was inconclusive [activator, single point].
In the case of `c1ccc2c(c1)nnn2-c1ncnc2sc3c(c12)CCCC3`, the “activity, positive = re-replication” value is reported as inactive: 10.2%.
With `O=C(Nc1ccccc1Cl)c1cc(=O)c2ccccc2o1` the “activity, positive = re-replication” value was inactive: 22.7%.
For `COc1ccc2cc3cc(C(=O)NCCc4ccc(OC)c(OC)c4)oc3nc2c1`, the Potency was inconclusive [activator, partial curve, poor fit].
With `O=C1CCN(Cc2ccccc2)S(=O)(=O)c2ccc(C(F)(F)F)cc21` the Potency was inconclusive [activator, partial curve, poor fit].
For `O=P1(O)C=C(c2ccccc2)OC(c2ccccc2)=C1`, the Potency was inconclusive [activator, full curve].
With `C=C(C)COc1ccc(-c2n[nH]c(C)c2-c2ccc(OC)c(OC)c2)c(O)c1` the Potency was inconclusive [activator, partial curve, poor fit].
For `COc1cc(NC(=O)Cn2cnc3c(NCc4ccccc4)ncnc32)cc(OC)c1OC`, the “activity, positive = re-replication” value was inactive: 10.8%.
For `COC(=O)[C@@]1(Cc2ccc(OC)cc2)[C@H]2c3cc(C(=O)N(C)C)n(CCSCCO)c3C[C@H]2CN1C(=O)c1ccccc1`, the Potency was inconclusive [activator, single point].
For `O=C(NCCOc1ccc(Cl)cc1)C1CC(=O)N(c2ccc(F)cc2)C1` (stereo not drawn), the Potency was inconclusive [activator, single point].
With `Cc1ccc(NC(=S)N(CCCN2CCCC2)Cc2cccn2Cc2ccc(Cl)cc2)cc1Cl` the Potency was inconclusive [activator, full curve].
With `Cc1ccc(NC(=O)c2cc(S(=O)(=O)NCCC3=CCCCC3)ccc2F)cc1` the Potency was inconclusive [activator, partial curve, poor fit].
For `O=C(/C=C/c1cccc(F)c1)OCC(=O)N1CCCC1`, the Potency was inconclusive [activator, full curve, poor fit].
In the case of `O=c1cc2c(nn1Cc1c(Cl)cccc1Cl)-c1ccccc1CC2`, the Potency is reported as inconclusive [activator, single point].
For `Cc1nnc(SCC(=O)N2c3ccccc3C(C)(c3ccc(Cl)cc3)CC2(C)C)s1` (stereo not drawn), the Potency was inconclusive [activator, single point].
With `COC(=O)c1cc(S(=O)(=O)N2c3ccccc3CC2C)cn1C` (stereo not drawn) the “activity, positive = re-replication” value was inactive: 6.88%.
With `Cc1ccc(NCC(=O)N/N=C/c2cccc(Oc3ccccc3)c2)cc1` the Potency was inconclusive [activator, single point].
With `Cc1ccc(C(=O)NNCC(=O)Nc2ccc(Cl)cc2F)cc1` the “activity, positive = re-replication” value was inactive: 8.82%.
For `CCOc1ccc(CN2CCCC(CO)(Cc3ccccc3F)C2)cc1` (stereo not drawn), the Potency was inconclusive [activator, partial curve, poor fit].
In the case of `CCOC(=O)C1=C(O)/C(=C/c2ccc(OCC(=O)O)c(OCC)c2)SC1=Nc1ccccc1`, the “activity, positive = re-replication” value is reported as inactive: -0.554%.
In the case of `O=C(C1=NNCC1c1ccc(Cl)cc1)C1CO1` (stereo not drawn), the Potency is reported as inconclusive [activator, single point].
In the case of `COc1cc(C(=O)NCC2CCCN2S(=O)(=O)c2cccs2)cc(OC)c1OC` (stereo not drawn), the “activity, positive = re-replication” value is reported as inactive: 6.08%.
With `O=C(Nc1cc(-c2ccccc2)nn1-c1c(Cl)cccc1Cl)c1ccc(F)cc1` the Potency was active: 14.6 µM.
With `Cc1ccc(C(=O)Nc2nc(-c3cc(Cl)sc3Cl)cs2)cc1` the Potency was active: 25.9 µM.
For `Cc1ccc(NC(=O)C(C)SCC(=O)Nc2ccc(F)cc2)cc1S(=O)(=O)N1CCOCC1` (stereo not drawn), the “activity, positive = re-replication” value was inactive: -3.48%.
For `CC1(C(=O)Nc2nccs2)Cc2ccccc2C(=O)O1` (stereo not drawn), the “activity, positive = re-replication” value was inactive: -0.138%.
In the case of `CC(C)=CCN1CCN(CCC2=C(C)CCCC2(C)C)CC1CCO` (stereo not drawn), the Potency is reported as inconclusive [activator, partial curve, poor fit].
In the case of `C=CCn1c(N)c(C(=O)NCC2CCCO2)sc1=S` (stereo not drawn), the Potency is reported as inconclusive [activator, full curve, poor fit].
In the case of `Clc1cccc(N2CCN(c3ncnc4nc[nH]c34)CC2)c1`, the Potency is reported as inconclusive [activator, partial curve, poor fit].
For `COc1ccccc1N(C(=O)c1csnn1)C(C(=O)NC1CCCC1)c1ccccc1` (stereo not drawn), the Potency was inconclusive [activator, single point].
With `CNC(=O)Nc1cccc(-c2cc(-c3c(Cl)cccc3Cl)no2)c1` the Potency was inconclusive [activator, single point].
With `Cc1cccc(C(=O)Nc2ccccc2C(=O)NCc2ccco2)c1` the “activity, positive = re-replication” value was inactive: 8.69%.
In the case of `CCOc1ccc(/C=C/c2[nH]c(=O)[nH]c(=O)c2[N+](=O)[O-])cc1`, the Potency is reported as inconclusive [activator, single point].
For `O=C(CSc1ccccc1)Nc1cc(Cl)ccc1Oc1ccccc1`, the “activity, positive = re-replication” value was inactive: 9.71%.
For `Cc1cc(C)cc(N2C(=O)CN(Cc3sccc3C)C2=S)c1`, the Potency was inconclusive [activator, single point].
With `Cc1nc2ccc(NC(=O)C3CCN(S(=O)(=O)c4cccs4)CC3)cc2s1` the Potency was inconclusive [activator, single point].
For `O=C(CN1C(=O)/C(=C/c2ccc(F)cc2)SC1=S)NC1C=CS(=O)(=O)C1` (stereo not drawn), the “activity, positive = re-replication” value was inactive: 10.3%.
For `CCOC(=O)Cc1csc(NC(=O)CSc2nc(C)cc(C)n2)n1`, the “activity, positive = re-replication” value was inactive: 10.5%.
In the case of `CN(Cc1ccc(C(F)(F)F)cc1)C(=O)c1ccc(Oc2ccccc2)cc1`, the Potency is reported as active: 16.4 µM.
For `COc1c2c(nc3occc13)C(CC=C(C)C)(OC)C(O)CC2` (stereo not drawn), the Potency was inconclusive [activator, single point].
In the case of `O=C(Cc1ccc(Cl)cc1Cl)NC1CCCCCC1`, the Potency is reported as inconclusive [activator, single point].
For `COC(=O)C1=C(C)N(Cc2ccccc2)C(=NCC2CC2)N[C@H]1c1ccccc1`, the Potency was inconclusive [activator, single point].
With `CCCSc1nc(N2CCOCC2)c2c(c1C#N)CCCC2` the Potency was inconclusive [activator, single point].
With `Cc1cccc([C@H]2[C@@H]3C=CCC[C@@H]3C(=O)N2Cc2ccccc2)c1` the Potency was inconclusive [activator, partial curve, poor fit].
With `C=CCc1ccccc1OCC(O)CN1CCN(CCN2C(=O)c3cccc4cccc(c34)C2=O)CC1` (stereo not drawn) the Potency was inconclusive [activator, single point].
